Among the data in article PMC12136788 are binding signal values, retold here.

The list shows a part of the results.

To fix the notation:
T1: UNK ZnF1-3 (human, UniProt Q9C0B0 31-174)
T1 sequence: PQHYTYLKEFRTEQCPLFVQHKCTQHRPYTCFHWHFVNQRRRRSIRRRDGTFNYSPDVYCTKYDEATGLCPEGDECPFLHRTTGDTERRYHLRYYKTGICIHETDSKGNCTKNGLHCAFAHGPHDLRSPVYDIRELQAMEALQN

B1: chr13:107726893:107726894:-_ENSMUSG00000042590_ENSMUST00000080856|mus_hu|FALSE|FALSE (ssRNA)
RNA: GGGAGUUCUACAGUCCGACGAUCCCCGCUCCCACUUCCCAACACGAAGUGGCGUCGGUUGGUCCCUCUCCCCACGCUGCCAGACCCCACGCCGCCGCCUACUGAUGCCGAAAGCGGCUUCUAGGAACACGCCAUGUUUGGCGUCAACAGAGGAUUGAGCAUCA
B2: chr17:17163782:17163783:-_ENSG00000141030_ENST00000268717|hu_mus|FALSE|FALSE (ssRNA)
RNA: GGGAGUUCUACAGUCCGACGAUCCAGCUCAGACGGGUUGUUGGUUGAAUAAACUUGUGCUAACUCAUGGUAAGCAUUGCUGAGAGGCUUAAUAAAUCUACCCACUAUUUGAGAGGUGUAUUUAGGCAGCUGUUGUACUUUGCCCAACAGAGGAUUGAGCAUCA
B3: chr15:51674161:51674162:-_ENSMUSG00000022312_ENSMUST00000022925|mus_mus|FALSE|FALSE (ssRNA)
RNA: GGGAGUUCUACAGUCCGACGAUCCUGAACAACCUCAGUGCCUUGUCCUUCUUCUUGAUAAUGUUUGAUUAUCUUUAAUACUACCAGGCCGUCGAUCUGCACCUGCUUCACGGCCGAAUCUCCGGAGCCGCCUUUGCCUUUGCCCAACAGAGGAUUGAGCAUCA
B4: chr2:153583694:153583695:+_ENSMUSG00000027479_ENSMUST00000028981|perfect_dup|FALSE|FALSE (ssRNA)
RNA: GGGAGUUCUACAGUCCGACGAUCGAAAAACUUCUUGAACCACUGAACGAAUUCAAAAUUGUCCUGAAACUUUCCUUUUACUAAUUUGUCCACAGGAAUUAUUUUGUCAACACCCAUUCUCUUAAAACCUGCUUGUAGUAUUUUCAACAGAGGAUUGAGCAUCA
B5: chr5:72858467:72858468:-_ENSG00000164331_ENST00000296785|hu_mus|motif|central (ssRNA)
RNA: GGGAGUUCUACAGUCCGACGAUCUUUAAAUAAGACAGAUGCCACCUCCAGGUCAGAGUUAACUUGAUCUUGAAUAUUUUUACGGUCCUCUUCAUUUAAGGACUUCACGAAUCGAGAACACACGUUCAUAUCAAAUCGGUUUGGCAACAGAGGAUUGAGCAUCA
B6: chrX:7458662:7458663:+_ENSMUSG00000031155_ENSMUST00000033495|mus_hu|motif|central (ssRNA)
RNA: GGGAGUUCUACAGUCCGACGAUCAAGCAGGGCACCAGAACCAAAAUCAAUGAGUUUGGCACAGCCACGGCGUAGGUCGGUCAGGAUGUUCUCAUCCUUGAUGUCACGAUGGACAACUCCACGGGAAUGGCAGUGCUGGAUGGCCAACAGAGGAUUGAGCAUCA
B7: chr1:26449037:26449038:+_ENSG00000175087_ENST00000374271|hu_mus|FALSE|FALSE (ssRNA)
RNA: GGGAGUUCUACAGUCCGACGAUCAUGCUUGCAAGCAGUAGGUCACGUCUCCCAGCUGCUGUCUUUAAAUGCAAUUUGGACUAAUCUGAGUUCUAGUUCAAAAGCAUCAGGGCGAUCCUGAGGGUUUGCGGCCAGCAUUUCCUUCAACAGAGGAUUGAGCAUCA
B8: 21640432_21658266_972_3pUTR_ENSMUSG00000042453_ENSMUST00000161356|mouse|control|control (ssRNA)
RNA: GGGAGUUCUACAGUCCGACGAUCCGGCUCACAGAAGGUGACAGCAUUGCCAUGCAUGAUGGUGCCACACUGCUCUCCCAUCUCACAGUUGCUGCAUUCAACCCAUAUGUUGGGGUUCAAUUCCAGUUGCUGGUAGGAGUCAAACAACAGAGGAUUGAGCAUCA
B9: chr1:39494447:39494448:+_ENSG00000168653_ENST00000372967|hu_mus|hu_hu_hu_mus_False|8_38 (ssRNA)
RNA: GGGAGUUCUACAGUCCGACGAUCGCACCGAGCGGCGUUCUUAUAGGGCUGUUCUGCGCUUAGGAACAUAAAGUGCCGGUCCAGGCUGAUGCCCAGCCUUUUCUGGAUGUCAAGGAAAGGCAUGGCUGAUGCUCGUGCUUGUCACAACAGAGGAUUGAGCAUCA
B10: chr8:104061119:104061120:+_ENSG00000155097_ENST00000518738|hu_hu|FALSE|FALSE (ssRNA)
RNA: GGGAGUUCUACAGUCCGACGAUCCAGAUUCUCUUGAACUUUGUCUUUGCUAUCUUCCAAUACAUCAGCCAUGUAUUGAGCUACUUUCUUAACCACUCCUUCUACAAAUGCAUCCAGUUUAGCCAGUUCAUCUGACAAGCCAACCAACAGAGGAUUGAGCAUCA
B11: chr5:71490377:71490378:+_ENSG00000131711_ENST00000296755|hu_mus|FALSE|FALSE (ssRNA)
RNA: GGGAGUUCUACAGUCCGACGAUCGCCCACUCCCAUCUUCUGGAACAGGAUGACAGGCUCAAUGGUAUUGCCUACACUUCUAAAUAGAGGCUCUGGUUUCAUGGACAGUUUGUUUAAGUACUGGAGAGUGAAGCAUGCUUCUUCCAACAGAGGAUUGAGCAUCA
B12: 21786304_21786424_504_CDS_ENSMUSG00000028248_ENSMUST00000108229|mouse|control|control (ssRNA)
RNA: GGGAGUUCUACAGUCCGACGAUCUGCAAAGUUAUCAGGUGGUCCACCAAAGUUGUGAUUGUUCUGGUUAAAUAUAUGCCUGUUGUCAGGGGCAAACUCCCCACUGUCCUGACUGUUGCUGUCUUCAGAAGGAGGAACAAUGUCCAACAGAGGAUUGAGCAUCA
B13: chr2:216981417:216981418:+_ENSG00000079246_ENST00000392132|hu_hu|hu_hu_hu_mus_True|28_108 (ssRNA)
RNA: GGGAGUUCUACAGUCCGACGAUCCUGAUACUGAUCCUUGCCAGCAAGGGCAUUAUCAGUGCCAUCUGUGCCAUAGAGGACUAACGCAAUCUCAUCUUUGCUCUCCGCAAACACCUGUCGUUGGACAAACAUAGUCAUCACUUUCAACAGAGGAUUGAGCAUCA
B14: chr1:163117127:163117128:-_ENSG00000143248_ENST00000313961|hu_mus|hu_hu_hu_mus_False|38_98 (ssRNA)
RNA: GGGAGUUCUACAGUCCGACGAUCUGCUACAAAGGAUGGAGGAAAUAUCACAGGGCAACUUUUGGAAGCCUGACCAGAUGACUACUUGAUUAGCUCCUGAUAAAACUCAGAGCGCACAAAGCGGGGCAGAGAAUCCUUCUCCAUCAACAGAGGAUUGAGCAUCA
B15: chr6:74354288:74354289:-_ENSG00000119899_ENST00000355773|hu_hu|motif|central (ssRNA)
RNA: GGGAGUUCUACAGUCCGACGAUCACUCAGAUUCACACGUAAUGCAUACACAAUGAAGAAACCAAAAAAGGCCAAAAUUGCGGAGUUGUAACGAGCAGAGCAGCACACUGGAGCGGCUUCGGCCCGUGGGGCGCCCGGUAGAAGCAACAGAGGAUUGAGCAUCA
B16: chr22:19452774:19452775:-_ENSG00000070010_ENST00000399523|hu_hu|hu_hu_hu_mus_False|8_58 (ssRNA)
RNA: GGGAGUUCUACAGUCCGACGAUCCUUCUCAUUGUAGUUGAUAGCAAUCACAUCUCCAGUCGUCAGACAGGCGAAGUUCCUAAGUGCAUUUUCUAAUACCGCUUUAGGGUUGGUAAUAUCCAGGAAGUCAGGGCUCUGAGGCUGCAACAGAGGAUUGAGCAUCA
B17: chr1:33857880:33857881:-_ENSMUSG00000042197_ENSMUST00000044455|mus_mus|FALSE|FALSE (ssRNA)
RNA: GGGAGUUCUACAGUCCGACGAUCUCUUGAAAACACCCAGUCACACUUUAUAUCUCAAGGAUUUCACAACGACGUCUAGACUAAUGGCAUCCCUCUUUAUUUCAAGAGAGAUCAGAUUGUCAGGCAUGUUUGAAAUUCUUGCUCCAACAGAGGAUUGAGCAUCA
B18: 77602660_77622899_379_3pUTR_ENSMUSG00000032350_ENSMUST00000034905|mouse|control|control (ssRNA)
RNA: GGGAGUUCUACAGUCCGACGAUCAACAUGUACUCCACCUCGUCACCCCACUUGAGCACGUCCUUGUGCCGGUCCUUGACUGCGUGGUAGAUGUGCAGGAACUGGAGGAUGCCGUGCCUCCGCACGUGGUCGGCGUGGCGCUGGCAACAGAGGAUUGAGCAUCA
B19: chr7:116176368:116176369:+_ENSMUSG00000031028_ENSMUST00000033341|mus_mus|motif|central (ssRNA)
RNA: GGGAGUUCUACAGUCCGACGAUCCAGACAGACACACACACACAGACACAGAGCACCUUGGAGCCAGAAGGACAGAAAAAGCGGGACUUGGAGAGGAGCUGGGGAAGCUAACAUCACCACUCUGCAGAAGAACUGGUUUGGAGCCAACAGAGGAUUGAGCAUCA
B20: chr14:66974463:66974464:+_ENSMUSG00000022044_ENSMUST00000074523|mus_hu|mus_mus_mus_hu_False|38_38 (ssRNA)
RNA: GGGAGUUCUACAGUCCGACGAUCUUGUAGGACGACUUAUUCAGGGGAUCGGCCAGGAAGCAGGAGCAGAACAAGGACACCAGCGGGAGCUCCUUCAUCUUCUCCUUGUAGGCAGCAAGGGUCAUGUUUCUGGGAUCUGGUGGCCAACAGAGGAUUGAGCAUCA
B21: chr18:42481571:42481572:+_ENSMUSG00000024491_ENSMUST00000091920|mus_hu|FALSE|FALSE (ssRNA)
RNA: GGGAGUUCUACAGUCCGACGAUCAAGAUAUUGGAUUAGGGCUGCUUCUGGGUCACCCUUAAAAGCAACCUGGAUAUUAACAAUAGUUCCAAAUUUGCUGAAGUGUUCAUUGAGCUUGGUAAUGUUGUUCAAUUCCUGAGGGAUCAACAGAGGAUUGAGCAUCA
B22: chr12:77883852:77883853:+_ENSMUSG00000090258_ENSMUST00000041262|mus_hu|FALSE|FALSE (ssRNA)
RNA: GGGAGUUCUACAGUCCGACGAUCGAUCUGUAGAAGGAUCCUUAGAAUAAGAGAGUCAUUUGUCGGGGGUCAUCAGGGAGAAUACUGAUAGUAUCUUCGGCUUUGCCGCAUAACAGACACAGCAUGGUAUACUCGAUCAUAGGUCAACAGAGGAUUGAGCAUCA

This test deals with T1, UNK ZnF1-3. Kind of test: nsRBNS (natural sequence RNA bind-n-seq); RBNS binding buffer (assumed for nsRBNS): 25 mM Tris pH 7.5, 150 mM KCl, 3 mM MgCl2, 0.01% Triton X-100, 500 ug/ml BSA, 20 U/ml SUPERase-In, 4 C; UNK is unkempt and MSI1 is Musashi-1; names of the RNAs are library labels; protein concentration not given here; high values mean tight binding.
Turning to B1, the binding signal is 0.849 enrichment R.
In the case of B2 it was 0.841 enrichment R; in that of B3, 0.502 enrichment R; in that of B4, 0.847 enrichment R.
As to B5, the binding signal was 1.08 enrichment R.
B6 yielded a binding signal of 1.25 enrichment R.
B7: the binding signal stood at 0.754 enrichment R.
In turn, B8 showed a binding signal of 0.923 enrichment R.
For the molecule B9, the binding signal worked out at 0.74 enrichment R.
In the case of B10 it was 0.85 enrichment R.
For the molecule B11, the binding signal came to 0.941 enrichment R.
B12 showed a binding signal of 0.97 enrichment R.
Turning to B13, the binding signal is 0.744 enrichment R.
In the case of B14 it was 1.55 enrichment R; in that of B15, 1.28 enrichment R; in that of B16, 0.863 enrichment R.
Molecule B17 displayed a binding signal of 0.421 enrichment R.
In the case of B18 it was 0.682 enrichment R.
In the case of B19 it was 2.74 enrichment R.
As for B20, the binding signal turned out to be 2.39 enrichment R.
In the case of B21 it was 0.838 enrichment R; in that of B22, 0.553 enrichment R.
